# Data: PubChem BioAssay AID1347417 (National Center for Advancing Translational Sciences (NCATS), 2020)
# In all, about 120,000 compounds went through this assay and about 5,300 (4.4%) were called active. Inconclusive results, whose numbers are uncertain, are shown with a selection of clear calls. Calls come from the whole dose curve; as a rule, active = well fitted inhibition curve with a large enough effect; inconclusive = small, poorly fitted or top-dose-only effect; inactive = no such curve, though single readings can be large or run the other way. Where the call is inconclusive, the potency comes from a doubtful curve fit.
# Experiment: qHTS Primary assay for Inhibitors of Plasmodium falciparum Dd2 growth in vitro; note: nearly all actives have a fitted effect of over 65% in size;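 for activity, negative = inhibition: plate controls were DMSO vehicle for no effect and reference drug for full effect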
# Conditions: P. falciparum Dd2 growth, SYBR Green, 72 h; activity, negative = inhibition: at 28.9 µM (top of the series) unless noted; series mostly up to 28.9 µM
# Method in brief: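 Infected erythrocytes (Dd2, 0.3% parasitemia, 2.5% hematocrit final) are added to compound in RPMI-1640/Albumax II medium, grown 72 h at 37C in low oxygen, then lysed with saponin/Triton-X containing SYBR Green and read by fluorescence.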
# Potency is the fitted concentration of half-maximal effect; tags give direction and shape of the fitted curve.
SMILES,Potency,"activity, negative = inhibition"
CCCCS(=O)(=O)CC(O)CSc1nc(-c2ccc(C)cc2)cc(-c2ccccc2)c1C#N (stereo unspecified),"inconclusive: 11.2 µM [inhibitor, single point]",–
CC(=O)N1CCCN(CC[C@H]2CN(C(=O)C3CCCCC3)CC[C@H]2CC(=O)O)CC1,inactive,–
Cc1ccc(NC(=O)c2ccc(N3CC4CC(C3)[C@H]3CCCC(=O)N3C4)nc2)c(C)c1 (stereo partly specified),"inconclusive: 8.91 µM [inhibitor, single point]",–
COCCN1C(=O)[C@H]2CN(Cc3ccc(OC(F)(F)F)cc3)C[C@H]2C1=O,inactive,–
CCn1cc(C(=O)N2CCN(c3cccc(Cl)c3)CC2)c2cc(OC)c(OC)cc2c1=O,"inconclusive: 15.8 µM [inhibitor, single point]",–
CC(C)NC(=O)C1=NOC2CN(C(=O)NC(C)C)CC12 (stereo unspecified),–,inconclusive: -80.1% [inhibitor] [at 44.1 µM]
CCOc1ccc(NC(=O)CC2CCCN(c3cnn(CCOC)c(=O)c3)C2)cc1 (stereo unspecified),inactive,–
COc1ccc(Cn2c3c(c(=O)n2Cc2ccccc2)CCN(C(=O)Cc2cccc(F)c2)C3)cc1,"inconclusive: 11.2 µM [inhibitor, single point]",–
O=C(C1CCC1)N1CCCC(Cc2nc(C3CCOCC3)no2)C1 (stereo unspecified),inactive,–
O=C(c1cccs1)N1CC(c2noc(C3CCCN3CC3CC3)n2)C1 (stereo unspecified),active: 3.98 µM,–
Cc1nc(C)c(C(=O)N2CCC3(CC2)CN(c2ncccn2)CC3CO)s1 (stereo unspecified),inactive,–
CN1C(=O)CS(=O)(=O)C12CCN(C(=O)c1cc(F)ccc1Cl)CC2,"inconclusive: 0.178 µM [inhibitor, full curve]",–
Fc1ccc(CN2CCOC[C@H]2c2ncc(-c3ccc(F)cc3F)[nH]2)cc1,"inconclusive: 12.6 µM [inhibitor, single point]",–
Cc1ccccc1NC(=O)Cn1nc2n(c1=O)CCCC2,inactive,–
CCOc1ccc(CC(=O)N2CCC(C3CCN(C(=O)NC)CC3)C2)cc1 (stereo unspecified),"inconclusive: 7.08 µM [inhibitor, partial curve]",–
O=C(NC[C@H]1O[C@@H](CO)[C@@H](O)[C@H]1N1CCN(c2cccc(C(F)(F)F)c2)CC1)Nc1ccc(F)cc1F,inactive,–
COCCOC1CN(C2CCN(C(=O)c3ccc(C)s3)CC2)C12CCCCC2 (stereo unspecified),"inconclusive: 2.24 µM [inhibitor, partial curve]",–
COCc1cc(CNC(=O)C2(Oc3ccc(Cl)cc3)CCNCC2)[nH]n1,inactive,–
CC1(CCCCN2CCOCC2)COc2ccc(C(=O)Nc3cccnc3)cc2N1 (stereo unspecified),"inconclusive: 31.6 µM [inhibitor, single point]",–
Cc1cc(OCCCn2c(CCNC(=O)C3CCCCC3)nc3ccccc32)ccc1Cl,"inconclusive: 8.91 µM [inhibitor, single point]",–
CC(=O)Oc1c(-c2ccc(NC(=O)c3ccccc3)cc2)c(-c2cccc(F)c2)nn1-c1ccccc1,"inconclusive: 11.2 µM [inhibitor, partial curve, poor fit]",–
Cc1ccc(CNC(=O)N2CCCC(CN3CCCC3)CC2)cc1 (stereo unspecified),active: 4.47 µM,–

SMILES,Potency,"activity, negative = inhibition"
CC(C)(C)c1ccc(NC(=O)O[C@@H]2CO[C@H]3[C@@H]2OC[C@@H]3Nc2nccc(-c3ccc4c(c3)OCO4)n2)cc1,"inconclusive: 1 µM [inhibitor, single point]",–
O=C(c1ccc2c(c1)N(Cc1c(F)cccc1Cl)C(=O)c1ccccc1S2)N1CCOCC1,"inconclusive: 5.01 µM [inhibitor, partial curve, poor fit]",–
CCn1cc(S(=O)(=O)N2CCC(c3noc(-c4ccccn4)n3)C2)cn1 (stereo unspecified),–,inactive: 21.5% [at 5.79 µM]
COc1cc(NC(=O)Cn2c(-c3cnccn3)nc(C)c(C)c2=O)cc(OC)c1,inactive,–
CCOc1cccc(C2c3[nH]c4ccccc4c3CCN2C(=O)CSCc2ccc(F)cc2)c1 (stereo unspecified),"inconclusive: 0.0794 µM [inhibitor, full curve, poor fit]",–
Cc1ccc([C@@H]2CN(C(=O)c3sccc3Cl)C[C@H]2N(C)C)cc1,"inconclusive: 11.2 µM [inhibitor, partial curve]",–
CCOc1ccc(S(=O)(=O)c2cn(Cc3ccccc3C)c3ccc(OC)cc3c2=O)cc1,active: 4.47 µM,–
COc1ccc(CCNC(=O)c2ccc(N3CC4CC(C3)[C@H]3CCCC(=O)N3C4)nc2)cc1OC (stereo partly specified),"inconclusive: 11.2 µM [inhibitor, single point]",–
CS(=O)(=O)N1C[C@H]2CCN(C(=O)c3c(F)cccc3F)C[C@H]21,inactive,–
Fc1cccc(CC2CCOC3(CCNCC3)C2)c1 (stereo unspecified),"inconclusive: 1.41 µM [inhibitor, full curve, poor fit]",–
O=C(Cn1cnc2onc(-c3ccc(F)cc3)c2c1=O)Nc1ccc(F)c(Cl)c1,"inconclusive: 17.8 µM [inhibitor, single point]",–
CCCCS(=O)(=O)N1CCC(c2nnc(Cn3cncn3)n2C)CC1,inactive,–
Cc1ccc(C(=O)NCc2nnc3c(-c4nc(C(C)C)no4)cccn23)cc1,"inconclusive: 0.316 µM [inhibitor, full curve, poor fit]",–
COc1ccc(C(=O)N2C[C@@H](Oc3cccnc3)C[C@H]2C(=O)N2CCCC2)cn1,inactive,–
COc1cccc(C(=O)NC2CCN(c3cc(C(F)(F)F)nc(C)n3)CC2)c1,inactive,–
CCOc1ccc(NC(=O)c2ccc3c(c2)N(C)C2CCCN2C3=O)cc1 (stereo unspecified),"inconclusive: 0.794 µM [inhibitor, partial curve]",–
COc1cccc(CNC(=O)Cn2nc3n(c2=O)CCCC3)c1,inactive,–
COc1ccc(OC)c(-c2nc3cc4c(cc3cc2CN2CCOCC2)OCO4)c1,"inconclusive: 3.16 µM [inhibitor, partial curve, poor fit]",–
CC(=O)c1cc(CN2CCCC(C(=O)c3cccc(OC(C)C)c3)C2)cs1 (stereo unspecified),inactive,–
COc1ccc(NC(=O)Cn2c(N3CCN(c4ccccc4)CC3)nc(C)cc2=O)cc1Cl,"inconclusive: 10 µM [inhibitor, partial curve]",–
CN1Cc2ccc(NCc3ccccc3)nc2C(C)(C(=O)NCc2ccccc2)C1 (stereo unspecified),"inconclusive: 0.562 µM [inhibitor, partial curve]",–
COc1ccc(CCN(Cc2ccccn2)C(=O)[C@H]2CCC[C@H](O)C2)cc1,inactive,–

SMILES,Potency,"activity, negative = inhibition"
CN(Cc1ccc(-c2ccccc2)cc1)C(=O)Cc1cccc(Cl)c1,"inconclusive: 15.8 µM [inhibitor, single point]",–
COc1cccc(NC(=O)c2sc3nc(C)c(C(=O)Nc4ccc(Cl)cc4)c(-c4ccc(Br)cc4)c3c2N)c1,"inconclusive: 17.8 µM [inhibitor, single point]",–
Cc1cccc(NC(=O)c2sc3nc(-c4ccccc4)cn3c2C)c1C,"inconclusive: 17.8 µM [inhibitor, single point]",–
COc1ccc2c(CNCc3ccccc3OC)c(C(=O)O)n(Cc3ccc(F)cc3Cl)c2c1,–,inactive: 274% [at 0.0462 µM]
CN(C)c1cccc(-c2cnc3[nH]cc(CC(=O)NCc4cccnc4)c3c2)c1,active: 8.91 µM,–
COc1ccc(-c2cc(C(=O)NC3CC3)c3c(C4CCNC4)nn(C)c3n2)cc1 (stereo unspecified),"inconclusive: 12.6 µM [inhibitor, single point]",–
COc1ccc(Cl)cc1C(=O)N1CCC[C@H]1c1nc(-c2ccc(C)cc2)no1,"inconclusive: 11.2 µM [inhibitor, single point]",–
Cc1cccc(N2CCN(C(=O)c3c(C)oc4ncnc(N5CCOCC5)c34)CC2)c1C,inactive,–
Nc1cc(=O)nc(SCC(=O)Nc2ccc(F)cc2)n1-c1cccc(Cl)c1,"inconclusive: 1 µM [inhibitor, single point]",–
Cc1cc(=O)n(CC(=O)N2CCc3ccccc32)c(N2CCc3ccccc3C2)n1,"inconclusive: 5.01 µM [inhibitor, partial curve, poor fit]",–
CCOC(=O)c1ccc(NC2=CC(c3ccc(O)c(OCC)c3)N(c3ccc(C(=O)OCC)cc3)C2=O)cc1 (stereo unspecified),"inconclusive: 0.891 µM [inhibitor, full curve, poor fit]",–
COc1cccc(NC(=O)Cn2c(-c3ccc(F)cc3)nc(C)cc2=O)c1,"inconclusive: 4.47 µM [inhibitor, partial curve, poor fit]",–
CCc1noc(-c2ccn3c(CNC(=O)Cc4cccc(OC)c4)nnc3c2)n1,"inconclusive: 12.6 µM [inhibitor, partial curve]",–
COc1ccc(F)c(CN2CCCC3(CCN(c4cc(C)nc(N)n4)C3)C2)c1 (stereo unspecified),active: 3.98 µM,–
COCCn1c(C)cnc1CCN,inactive,–
CC(C)CNC(=O)C1COC2(CCC(C)CC2)N1C(=O)c1cccc([N+](=O)[O-])c1 (stereo unspecified),"inconclusive: 10 µM [inhibitor, partial curve, poor fit]",–
O=C(N[C@H]1CCN2C(=O)c3cc(-c4ccsc4)ccc3NC(=O)[C@@H]2C1)c1cccs1,–,inconclusive: -33.7% [inhibitor]
COC(=O)c1c(S(=O)(=O)N2CCCCCCC2)sc2c1CCN(C(=O)C1CC=CCC1)C2 (stereo unspecified),"inconclusive: 12.6 µM [inhibitor, single point]",–
CN(C)C(=O)c1ccc(-c2ccc(N3CCCCCC3)nc2)cc1,inactive,–
CC(C)CCN1C[C@@H]2[C@H](C1)N(CCOc1ccccc1)C(=O)C(C)(C)[S+]2(=O)[O-],"inconclusive: 20 µM [inhibitor, single point]",–
O=C(C1CCCC1)N1CC2(CCCN(Cc3cccnc3)C2)Cc2ccccc21 (stereo unspecified),"inconclusive: 7.94 µM [inhibitor, single point]",–
COc1ccc(OCC(=O)Nc2ccc(O)c(-c3nc4ccccc4s3)c2)cc1,"inconclusive: 17.8 µM [inhibitor, single point]",–
